# From PubChem BioAssay AID624296 (National Center for Advancing Translational Sciences (NCATS), 2012)
# The whole screen tested about 350,000 compounds, of which about 9,900 (2.8%) were called active. This list was built around the results that the source calls inconclusive (neither active nor inactive); the mix of calls is not that of the screen. Calls follow the shape of the dose curve; as a rule, active = well fitted activation curve with a large enough effect; inconclusive = small, poorly fitted or top-dose-only effect; inactive = no such curve, though single readings can be large or run the other way. Potencies of inconclusive entries are left out as doubtful fits.
# Test: A quantitative high throughput screen for small molecules that induce DNA re-replication in MCF 10a normal breast cells. Also: nearly all actives have a fitted effect of over 50% in size.
# Details: MCF 10A DNA re-replication, Hoechst nuclear intensity, 48 h; series mostly up to 46.1 µM
# Potency is read from the fitted curve at half-maximal effect; tags tell the direction and shape of the fitted curve.
row,SMILES,Potency
1,Cc1ccc(C)c(S(=O)(=O)N2CCN(C(=O)CNC(=O)c3ccc4ccccc4c3)CC2)c1,"inconclusive [activator, single point]"
2,COc1cc(/C=C(/C#N)c2ccc(C)cc2)ccc1Oc1ccc([N+](=O)[O-])cn1,"inconclusive [activator, full curve, poor fit]"
3,CCN(Cc1ccc(OC)c(F)c1)C(=O)CCl,"inconclusive [activator, single point]"
4,Cc1cc(C(=O)CSc2nnc(C3CC3)n2C2CC2)c(C)n1C(C)C,inactive
5,CC(=O)N1CCN(c2ccc(NCc3cccs3)cc2)CC1,"inconclusive [activator, single point]"
6,CC(C)C[C@H](NC(=O)c1cc2cc(Cl)ccc2n1C)C(=O)N1CCC(C(=O)O)CC1,inactive
7,CCCCn1c(-c2cccc(Br)c2)nc2cc3[nH]c(=O)c(C(C)C)nc3cc21,active: 18.4 µM
8,COc1cc(Cl)c(CN2CCC(CCC(=O)NC3CC3)CC2)cc1OC,active: 0.58 µM
9,COc1ccc(C(=O)NCCOC(C)C)cc1OC1CCN(C(C)=O)CC1,inactive
10,Cc1ccc(C(=O)NN(C)c2nc3ccccc3nc2C(F)(F)F)cc1,active: 4.61 µM
11,COc1ccc(CNCCC(c2ccc(OC)cc2)c2ccccc2OC)cc1 (stereo not drawn),"inconclusive [activator, single point]"
12,O=C(CSc1nc2ccccc2s1)N1N=C(c2cccs2)CC1c1ccc(F)cc1 (stereo not drawn),active: 16.4 µM
13,NC(=O)c1ccc(NC(=O)CSc2nnc(-c3cccnc3)n2Cc2ccco2)cc1,"inconclusive [activator, single point]"
14,CC(C(=O)O)n1nc(-c2ccccc2)c2ccccc21 (stereo not drawn),inactive
15,O=C(Cn1cc(C(F)(F)F)ccc1=O)NCC1CCCO1 (stereo not drawn),inactive
16,CC1CCN(C(=O)CN(c2cccc(F)c2)S(C)(=O)=O)CC1,"inconclusive [activator, full curve, poor fit]"
17,O=C(NCc1ccccn1)c1ccc(Cn2cc(C(F)(F)F)ccc2=O)cc1,inactive
18,c1ccc(CCn2c(C3CC3)nc3ccccc32)cc1,"inconclusive [activator, partial curve, poor fit]"
19,CC(/C=C/c1ccccc1F)=N\NC(=O)c1ccc(Cl)cc1,"inconclusive [activator, single point]"
20,Cc1ccc(OCC(=O)N(Cc2ccco2)C2CCS(=O)(=O)C2)cc1 (stereo not drawn),inactive
21,CCCn1nc2cc(C(=O)NCc3ccccc3)ccc2c1OCC,"inconclusive [activator, single point]"
22,CCCC(=O)N1CCC(CCC(=O)NC2CC2)CC1,"inconclusive [activator, single point]"
23,C=CCn1c(NCc2c[nH]c3ccccc23)nc2ccccc21,"inconclusive [activator, single point]"
24,CN(Cc1ccccc1)C(=O)CCC1CCN(C(=O)c2ccccc2C(F)(F)F)CC1,inactive
25,Cc1ccc(C2CC(c3ccc(Cl)cc3)=NNC2=O)cc1 (stereo not drawn),inactive

row,SMILES,Potency
1,COc1ccccc1N(Cc1ccccc1)S(=O)(=O)c1cccc(C(=O)N2CCCCC2)c1,"inconclusive [activator, partial curve]"
2,S=C(Nc1ccccc1)Nc1nc2ccccc2n1CCOc1ccc(Cl)cc1,"inconclusive [activator, single point]"
3,COc1cccc(NC(=O)Nc2ccc3nsnc3c2)c1,inactive
4,CCn1nnc(NC(=O)COc2cc(C)ccc2C(C)C)n1,inactive
5,N=C1C(c2ccc(Br)cc2)=C(O)C2CCc3ccccc3N12 (stereo not drawn),"inconclusive [activator, partial curve, poor fit]"
6,CCOc1ccc(CN(C)C(=O)[C@H](Cc2ccccc2)NC(=O)OCc2ccccc2)cc1OC,"inconclusive [activator, partial curve, poor fit]"
7,Cc1nc(C/C(=N\N)c2ccc(O)cc2O)cs1,inactive
8,CCC(=O)N1c2ccc(S(=O)(=O)N(CCO)Cc3ccccc3)cc2CC1C (stereo not drawn),inactive
9,O=c1[nH]c(SCc2ccccc2Cl)nc2c1cnn2-c1ccccc1,"inconclusive [activator, partial curve, poor fit]"
10,COC(=O)CN1C(CN2CCOCC2)=Nc2ccc(Br)cc2C1c1ccccc1 (stereo not drawn),"inconclusive [activator, single point]"
11,CCN1CCN(c2ccc(S(=O)(=O)N3CCOCC3)cc2NC(=O)/C=C/c2ccc([N+](=O)[O-])cc2)CC1,"inconclusive [activator, single point]"
12,O=[N+]([O-])c1cccnc1Sc1ccc(F)cc1,"inconclusive [activator, partial curve, poor fit]"
13,Cc1cccc(C(=O)N[C@H](C(=O)NCc2cccs2)C(C)C)c1,inactive
14,CCC(C)NC(=O)CSc1nc2scc(-c3ccccc3)c2c(=O)[nH]1 (stereo not drawn),"inconclusive [activator, partial curve, poor fit]"
15,COc1cc(C(C)=O)ccc1Oc1ncnc2c1cnn2-c1ccccc1,inactive
16,Cc1ccc(OCC(=O)Nc2cccc(-c3nnc(-c4ccccc4)o3)c2)c(C)c1,"inconclusive [activator, full curve, poor fit]"
17,CC(C)(C)N/N=C/c1cc(Cl)cc([N+](=O)[O-])c1O,inactive
18,O=C(Nc1ccc(Cl)c(Cl)c1)Nc1ccon1,active: 11.6 µM
19,NC(=O)c1nnn(-c2cccc(C(F)(F)F)c2)c1-c1ccccc1,inactive
20,NC(=O)c1ccc(SCC(=O)NC2CCCCC2)c([N+](=O)[O-])c1,inactive
21,COc1ccc([N+](=O)[O-])cc1NCC(=O)Nc1cc(S(=O)(=O)N2CCCCC2)ccc1C,inactive
22,COCC1=C(C(=O)OC(C)OC(=O)OC(C)C)N2C(=O)[C@@H](NC(=O)/C(=N\OC)c3csc(N)n3)[C@H]2SC1 (stereo partly drawn),"inconclusive [activator, single point]"
23,C=C1CCN([C@H](C(=O)Nc2ccc(OC)cc2)C(C)C)S(=O)(=O)c2ccccc21,"inconclusive [activator, single point]"
24,CCSc1nc2sc3c(c2c(=O)n1C1CCCCC1)CCN(C)C3,"inconclusive [activator, single point]"
25,CCc1ccc(-c2nn(Cc3ccccc3)cc2C(=O)NCC2CCCO2)cc1 (stereo not drawn),inactive

row,SMILES,Potency
1,O=C(C1=C[C@@H](c2ccc3c(c2)OCO3)C[C@@H](OCCCCO)O1)N1CCOCC1,"inconclusive [activator, full curve, poor fit]"
2,NC(=O)Nc1n[nH]c(-c2ccccc2)n1,inactive
3,CCN=C1S/C(=C\c2ccc(-c3cccc(C(=O)O)c3)o2)C(=O)N1CC,"inconclusive [activator, full curve, poor fit]"
4,COc1ccc2[nH]c(=O)c(CN(Cc3ccccc3)Cc3nnnn3CC3CCCO3)cc2c1 (stereo not drawn),"inconclusive [activator, partial curve, poor fit]"
5,N#C/C(=C\Nc1ccc2cn[nH]c2c1)c1nc(-c2ccccc2)cs1,active: 16.4 µM
6,CC(C)(C)c1ccc(C(=O)Nc2cccnc2)cc1,inactive
7,COc1ccc2[nH]cc(C(=O)CNc3nc(C)cs3)c2c1,"inconclusive [activator, single point]"
8,COc1c(N2CCN(C(=S)NCc3ccccc3)C(C)C2)c(F)cc2c(=O)c(C(=O)O)cn(C3CC3)c12 (stereo not drawn),inactive
9,Cc1ccc(S(=O)(=O)c2cc3c(=O)n4ccccc4nc3n(C)c2=N)cc1C,active: 4.11 µM
10,COc1ccccc1C(=O)NNC(=O)C(=O)Nc1ccc(C)c(Cl)c1,inactive
11,CC(NC(=O)c1cc(-c2ccc(Br)cc2)on1)c1ccccc1 (stereo not drawn),"inconclusive [activator, full curve]"
12,O=C(c1ccccc1)c1nn(-c2ccc(Cl)cc2)cc1C(=O)c1cc2ccccc2oc1=O,"inconclusive [activator, full curve, poor fit]"
13,N=c1sccn1CC(=O)N1N=C(c2ccc(Cl)cc2)CC1c1ccco1 (stereo not drawn),inactive
14,Cc1ccc(C(=O)NC(=S)Nc2ccc(CN3CCCCC3)cc2)c(C)c1,inactive
15,O=c1[nH]c(-c2ccccc2)nc2sc(-c3ccccc3)cc12,active: 10.3 µM
16,CC(C)C(=O)NC(=S)Nc1ccc(S(=O)(=O)N(C)Cc2ccccc2)cc1,"inconclusive [activator, single point]"
17,CCOC(=O)c1nc(C)nc(Sc2n[nH]c(-c3ccc(C(C)(C)C)cc3)n2)c1C,"inconclusive [activator, single point]"
18,COc1cc(CNCCN2CCOCC2)ccc1OCc1ccccc1Cl,"inconclusive [activator, single point]"
19,Cc1ccc(N(CC(=O)Nc2ccc(Br)c(C)c2)S(=O)(=O)c2c(C)[nH]c(=O)[nH]c2=O)cc1,"inconclusive [activator, single point]"
20,CC1CCN(C(=O)N[C@@H](Cc2ccccc2)C(=O)O)CC1,"inconclusive [activator, single point]"
21,COC(=O)/C=C/c1cccc([C@H]2[C@@H]3C=CC[C@@H](C)[C@@H]3C(=O)N2Cc2ccccc2)c1,"inconclusive [activator, single point]"
22,COc1ccc(/C=C2/CCCc3ccccc3C2=O)cc1,active: 1.64 µM
23,Cn1c(=O)n(Cc2ccccc2)c(=O)c2c1nc1n2CCCN1Cc1ccccc1,inactive
